This note sets out measurements from PubChem BioAssay AID1645882 (National Center for Advancing Translational Sciences (NCATS), 2021).

Screen size: about 16,000 compounds; about 120 (0.75%) were called active. Roughly 4% stayed inconclusive and do not appear here. Calls come from the whole dose curve; as a rule, active = well fitted inhibition curve with a large enough effect; inconclusive = small, poorly fitted or top-dose-only effect; inactive = no such curve, though single readings can be large or run the other way. Some of the results follow.

This test has as its target Rap guanine nucleotide exchange factor 3 (Homo sapiens) (UniProt O95398). The test is described as follows: Validation qHTS for antagonist of cAMP-regulated guanine nucleotide exchange factor 3 (EPAC1). Note: nearly all actives have a fitted effect of over 75% in size. Conditions: EPAC1 Rap1B-BODIPY-GDP exchange, fluorescence; series mostly up to 150 µM; activity change, negative = inhibition: at the top concentration. An excerpt: Assay Provider (PI): Xiaodong Cheng Ph.D.
Chain of UniProt O95398 (O95398 whole entry, looked up): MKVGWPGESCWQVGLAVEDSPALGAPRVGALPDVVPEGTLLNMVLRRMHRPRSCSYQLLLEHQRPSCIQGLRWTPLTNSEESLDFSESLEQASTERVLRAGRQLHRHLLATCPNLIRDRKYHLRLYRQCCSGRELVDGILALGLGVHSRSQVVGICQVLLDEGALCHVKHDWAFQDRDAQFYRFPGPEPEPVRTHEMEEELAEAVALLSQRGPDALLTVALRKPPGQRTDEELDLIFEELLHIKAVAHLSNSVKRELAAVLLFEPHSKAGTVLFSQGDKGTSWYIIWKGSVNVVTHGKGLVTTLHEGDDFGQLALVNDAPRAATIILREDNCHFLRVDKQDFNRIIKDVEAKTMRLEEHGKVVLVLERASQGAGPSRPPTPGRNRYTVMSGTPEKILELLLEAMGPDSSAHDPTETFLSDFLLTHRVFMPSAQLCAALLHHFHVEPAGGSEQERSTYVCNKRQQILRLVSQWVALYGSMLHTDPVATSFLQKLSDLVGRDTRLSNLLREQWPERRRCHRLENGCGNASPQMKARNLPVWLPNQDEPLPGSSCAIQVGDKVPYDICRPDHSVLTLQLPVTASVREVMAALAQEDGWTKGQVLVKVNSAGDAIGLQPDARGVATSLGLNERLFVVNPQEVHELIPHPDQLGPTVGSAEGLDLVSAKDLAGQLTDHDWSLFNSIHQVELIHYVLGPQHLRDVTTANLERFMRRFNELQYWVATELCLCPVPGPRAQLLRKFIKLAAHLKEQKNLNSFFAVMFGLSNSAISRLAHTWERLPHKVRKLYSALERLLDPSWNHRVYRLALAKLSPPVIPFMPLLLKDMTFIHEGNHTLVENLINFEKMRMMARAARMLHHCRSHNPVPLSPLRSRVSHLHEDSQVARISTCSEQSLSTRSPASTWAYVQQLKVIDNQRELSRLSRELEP
The University of Texas Medical Branch, […], TX
In multi-cellular eukaryotic organisms, the effects of cAMP are transduced by two ubiquitously-expressed intracellular cAMP receptors, the classic protein kinase A/cAMP-dependent protein kinase (PKA/cAPK) and the more recently discovered exchange protein directly activated by cAMP/cAMP-regulated guanine nucleotide exchange factor (EPAC/cAMP-GEF). Both PKA and EPAC are ubiquitously expressed in all tissues, and an increase in intracellular cAMP levels will lead to the activation of both PKA and EPAC. Therefore, careful dissections of the individual role and relative contribution of EPAC and PKA within the overall cAMP signaling in various model systems are critical for further elucidating the mechanism of cAMP signaling. To date no EPAC-specific antagonists and agonist, as well as isoform-specific agonists have been reported, and developing EPAC-specific pharmacological probes to determine the physiological functions that EPAC play in the overall cAMP-mediated signaling remains a major challenge within the research field. Furthermore, identified regulators of EPAC may lead to new mechanism-based therapeutic strategies specifically targeting the EPAC / cAMP-signaling components as EPAC has been implicated to play important roles in major human pathological conditions such as diabetes, heart disease, and cancer.
This qHTS will be used to screen the Molecular Libraries Small Molecule Repository (MLSMR) as a concentration-titration series using the NCGC unique quantitative screening (qHTS) platform to find activators for EPAC1. In addition, this assay will also be used as a counterscreen for the EPAC2 qHTS. This fluorescent based assay is developed and validated for EPAC1 that measures exchange using EPAC effector Rap1 complex with BODIPY-GDP, a GDP analog with a tethered fluorophores. Activators are identified by monitoring the change in fluorescence signal as the exchanged free BODIPY-GDP has a reduced fluorescence compared to Rap1-bound BODIPY-GDP. Increase in signal (activation) is the desired outcome for the EPAC1 agonist while no activity in this assay is desired for the EPAC2 agonist counterscreen.
[1] de Rooij, J., Zwartkruis, F. J., Verheijen, M. H., Cool, R. H., Nijman, S. M., Wittinghofer, A., and Bos, J.L. (1998) Nature 396, 474-477.
Briefly, three uL of reagents (100 nM EPAC1, 250 nM RAP1B-BODIPY-GDP, 50 uM GDP) were dispensed into a 1536-well Greiner black solid-bottom medium binding assay plate. Controls and test compounds (23 nL) were transferred to the plate via a Kalypsys pin tool equipped with a 1536-pin array. The plates were centrifuged at 1,000 rpm for 15 seconds followed by 5 minute incubation at room temperature. The assay plates were read at 5 minute intervals for 30 minutes in the ViewLux plate reader using 480nm excitation and 540nm emission filters. The results were normalized to the […] positive control ATA and DMSO.
On the technique in general: In qHTS, concentration-response curves come from the screen itself.
`CN(C)c1ccc(C=O)cc1Cl`: the “activity change, negative = inhibition” value is inactive: 21.5%.
The same measure for `CO[C@H]1[C@H](NC(=O)c2ccncc2)c2ccccc2C12CCN(C(=O)c1ccoc1)CC2`: inactive: 18%.
As for `CCC(=O)NS(=O)(=O)c1ccc(-c2c(-c3ccccc3)noc2C)cc1`, the “activity change, negative = inhibition” value is inactive: 9.39%.
As for `CC(O)(COc1ccccc1)c1ccc2c(c1)CN(Cc1cccnc1)CCO2` (stereo unspecified), the “activity change, negative = inhibition” value was inactive: 23.7%.
The same measure for `CCCCCCN(CCCCCC)C(=O)Cc1c(-c2ccc(F)cc2)[nH]c2ccccc12`: “inactive”; for `CCN(CC)CCNC(=O)c1ccc(NC(C)=O)cc1`: “inactive”; for `Cc1noc(C)c1C(=O)N1CCC2(CCCN(Cc3nccs3)C2)CC1`: inactive: 8.9%.
For the compound `N[C@@H](Cc1cnc[nH]1)C(=O)O`, the activity change, negative = inhibition entry is “inactive”.
The same measure for `CN(C)C(=O)c1ccc(-c2nc(Nc3ccc(F)cc3)c3ccccc3n2)cc1`: inactive: 15.5%; for `COCCNc1nc(-c2c(C)noc2C)nc2ccccc12`: inactive: -7.36%; for `COc1cccc(-c2cc3c(c(OC)c2)OCCN(Cc2ccccc2O)C3)n1`: inactive: 4.45%.
`NNc1nnc(Cc2ccncc2)c2ccccc12`: the “activity change, negative = inhibition” value is inactive: 18.8%.
For the compound `CC[C@H]1CN2CCc3cc(OC)c(OC)cc3[C@@H]2C[C@@H]1C[C@H]1NCCc2cc(OC)c(OC)cc21`, the “activity change, negative = inhibition” value was inactive: -6.16% [at 75.8 µM].
In the case of `COc1cccc(-c2nc3cc(SC)ccc3cc2CN(C(=O)c2sccc2C)C2CC2)c1`, the “activity change, negative = inhibition” value was inactive: -2.79%.
As to `FC(F)(F)c1cc(CN2CCCC3(CCNCC3)C2)cc(C(F)(F)F)c1`, the “activity change, negative = inhibition” value is inactive: 4.68%.
Take `Cc1ccc(-c2ccnc(-n3ncc(C(=O)NC[C@@H]4CCCN5CCCC[C@H]45)c3C3CC3)n2)o1`: the “activity change, negative = inhibition” value was inactive: 10.9%.
As to `COc1cccc(-c2nc(NCc3cccnc3)c3ccccc3n2)c1`, the “activity change, negative = inhibition” value was inactive: -5.85%.
As to `CCc1cc(C(=O)NCCN2Cc3ccccc3OC(c3ccsc3)C2)n(C)n1` (stereo unspecified), the “activity change, negative = inhibition” value was inactive: -2.9%.
The value for `CC(C)(CO)[C@@H](O)C(=O)NCCCO` was “inactive”; that for `COc1ccc(NC(=O)N2CC[C@@]3(CCCN(C(C)=O)C3)C2)cc1` was inactive: 27.2%.
With `O=C(c1cc(C(F)(F)F)cc(C(F)(F)F)c1)N1CCC[C@@]2(CCN(c3ccccc3)C2)C1`, the “activity change, negative = inhibition” value was inactive: -6.53%.
The same measure for `C=C(C)C1CC[C@]2(CO)CC[C@@]3(C)[C@H](CCC4[C@@]5(C)CCC(O)C(C)(C)C5CC[C@@]43C)C12` (stereo partly specified): inactive: -0.0849%; for `CCOC(=O)[C@H](CCc1ccccc1)N[C@@H](C)C(=O)N1[C@H](C(=O)O)C[C@H]2CCCC[C@@H]21`: “inactive”.
For `CCNc1ncc2nc(-c3cccs3)c(=O)n(C[C@H]3CCCO3)c2n1`, the “activity change, negative = inhibition” value is inactive: 24.3%.
Regarding `COc1ccc(C(=O)N(O)c2ccccc2)cc1`, the “activity change, negative = inhibition” value is inactive: 17.3%.
The same measure for `COc1cccc(Cn2c(=O)c(-c3cc(F)cc(F)c3)nc3cnc(N4CCOCC4)nc32)c1`: inactive: -1.3%; for `O=C(O)C1CCC[C@@H]2[C@@H]3CC(CN12)[C@@H]1CCCCN1C3` (stereo partly specified): inactive: 0.445%; for `COc1cccc(-c2nc(NCc3ccccc3OC)c3ccccc3n2)c1`: inactive: -11.3%.
The value for `O=C([C@@H]1C[C@@H](Sc2nc3ccccc3[nH]2)CN1CC1CCCCC1)N1CCOCC1` was inactive: 9.13%.
Consider `COc1ccc(NC(=O)N2CC[C@@]3(CCCN(S(C)(=O)=O)C3)C2)cc1`, for which the “activity change, negative = inhibition” value was inactive: 10.8%.
The same measure for `CCCCC[C@H](O)/C=C/[C@H]1C=CC(=O)[C@@H]1C/C=C\CCCC(=O)O`: inactive: 19.9% [at 15.3 µM]; for `Cc1ccc(S(=O)(=O)NC(=O)NC2CCCCCCC2)cc1`: inactive: 6.08%.
Regarding `O=C1CCCCN1CCC(=O)N1CCOc2ccc(C(O)C3CCCCC3)cc2C1` (stereo unspecified), the “activity change, negative = inhibition” value was inactive: 3.64%.
As to `COC(=O)[C@H]1[C@H]2C[C@@H]3c4[nH]c5cc(OC)ccc5c4CCN3C[C@H]2C[C@@H](OC(=O)c2cc(OC)c(OC)c(OC)c2)[C@@H]1OC`, the activity change, negative = inhibition result was “inactive”.
The same measure for `COc1cc2c(cc1OC)-c1cc3ccc(OC)c(OC)c3c[n+]1CC2`: inactive: 2.1%; for `COc1cccc(-c2ccc3ncnc(NC4CC4)c3c2)c1`: inactive: -16.8%; for `COc1ccccc1N1CCN(c2nc(CNC(=O)c3sc(C)nc3C)nc3ccccc23)CC1`: inactive: 0.951%.
The value for `CC(C)C[C@H](NC(=O)[C@@H](O)[C@H](N)Cc1ccccc1)C(=O)O` was “inactive”; that for `Cc1cc(C(=O)N2CCOc3ccc(CN4CCC(Oc5cccnc5)CC4)cc3C2)c(C)o1` was inactive: 12.1%; that for `O=C(O)CN(CCOCCOCCN(CC(=O)O)CC(=O)O)CC(=O)O` was “inactive”.
For the compound `COc1cc([C@@H]2c3cc4c(cc3[C@H](O)[C@H]3COC(=O)[C@H]23)OCO4)cc(OC)c1OC`, the activity change, negative = inhibition entry was “inactive”.
For `O=P(O)(O)C(O)(Cc1cnc2ccccn12)P(=O)(O)O`, the “activity change, negative = inhibition” value is inactive: 39.9%.
The value for `CN(C)CCCSc1ccccc1NC(=O)/C=C/c1ccccc1` was inactive: 3.38%; that for `COc1ccc(Oc2ncc3nc(-c4ccccc4)c(=O)n(CCC#N)c3n2)cc1` was inactive: 17.6%.
Regarding `NC(C(=O)O)c1cccc(O)c1` (stereo unspecified), the “activity change, negative = inhibition” value is inactive: 11.5%.
As to `COc1cccc(C(=O)N(Cc2cc3cc4c(cc3nc2N(C)C)OCO4)CC2CCCO2)c1` (stereo unspecified), the “activity change, negative = inhibition” value was inactive: 0.294%.
As for `N[C@H](C(=O)O)[C@H](O)C(=O)O`, the activity change, negative = inhibition result is “inactive”.
The same measure for `O=S1(=O)CCOCCCN1Cc1cccc(Cl)c1`: inactive: -27.4%.
The value for `CN=C(NC#N)NCCSCc1nc[nH]c1C` was “inactive”.
In the case of `O=C(NCCN1Cc2ccccc2OC(c2ccsc2)C1)c1cncs1` (stereo unspecified), the “activity change, negative = inhibition” value is inactive: 8.94%.
The same measure for `COC(=O)[C@@H]1C[C@@H](NC(=O)c2ccc(C(F)(F)F)cc2)CN1Cc1cccc(O)c1`: inactive: -6.4%.
